SMILES strings stand for the structures. Inconclusive results and toxic doses are left out. Certain results were filed several times, with different values. They are shown here; other results are not. The source may hold further records. The records of an entry are repeats (runs, samples, wells, individuals or studies).

The subject of this test is Lymphoma 4 ip in BDF1 mice, median survival. As to the kind of experiment: NCI In Vivo Anticancer Drug Screen. Data for tumor model Lymphoma 4 (intraperitoneal) in B6D2F1 (BDF1) mice. The settings on record: endpoint: median survival time; dose: 0.25 mg/kg/injection; schedule: Q01DX010 (ip); vehicle: saline; higher = longer survival. As to the method: The antitumor activity of compounds was measured in mice bearing transplantable tumors. Survival or tumor size were measured and the results are expressed as the measurement made in the treated group (T) divided by the measurement made in the vehicle treated control group (C). The tumor model used in this assay is Lymphoma 4 (intraperitoneal) in B6D2F1 (BDF1) mice

Consider `CC[C@]1(O)C[C@H]2CN(CCc3c([nH]c4ccccc34)[C@@](C(=O)OC)(c3cc4c(cc3OC)N(C=O)[C@H]3[C@@](O)(C(=O)OC)[C@H](OC(C)=O)[C@]5(CC)C=CCN6CC[C@]43[C@@H]65)C2)C1`, for which the T/C was 101 % of control and 190 % of control.

The values above are taken from PubChem BioAssay AID240 (DTP/NCI, 2004).
